Among all 73,000 compounds or so, about 2,500 (3.4%) were called active. Inconclusive results, whose numbers are uncertain, are shown with a selection of clear calls. Calls follow the shape of the dose curve; as a rule, active = well fitted inhibition curve with a large enough effect; inconclusive = small, poorly fitted or top-dose-only effect; inactive = no such curve, though single readings can be large or run the other way. A potency beside an inconclusive call is a rough fit, not a confirmed value.
The molecules below were run against 3-hydroxyacyl-CoA dehydrogenase type-2 (Homo sapiens) (UniProt Q99714) (assay: qHTS Assay for Inhibitors of HADH2 (Hydroxyacyl-Coenzyme A Dehydrogenase, Type II)). Details: recombinant HADH2, NADH fluorescence, beta-hydroxybutyryl-CoA; activity change, negative = inhibition: at 57.1 µM (top of the series).
Sequence of UniProt Q99714 (Q99714 whole entry, looked up): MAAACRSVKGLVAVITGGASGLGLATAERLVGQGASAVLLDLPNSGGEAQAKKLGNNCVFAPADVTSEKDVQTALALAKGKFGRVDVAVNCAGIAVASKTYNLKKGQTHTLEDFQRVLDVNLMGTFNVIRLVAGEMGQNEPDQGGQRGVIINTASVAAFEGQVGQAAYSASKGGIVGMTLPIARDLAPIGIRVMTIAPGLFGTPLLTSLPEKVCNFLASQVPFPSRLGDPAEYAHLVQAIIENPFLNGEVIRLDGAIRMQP
Sequence of UniProt Q99714 (Q99714 whole entry, looked up): as above
Procedure, shortened: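 NADH fluorescence (ex 360/em 450 nm) read every 30 s for 4 min; activity taken as last-minus-first time point difference. Enzyme 20 nM, NAD+ 1 mM, beta-hydroxybutyryl-CoA 90 uM, pH 9.0 Tris buffer.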
% is scaled to controls: 0 for no effect and ±100 for the full control effect; potency is read from the fitted curve at half-maximal effect; tags tell the direction and shape of the fitted curve.
Also: nearly all actives have a fitted effect of over 60% in size.

| Compound | Potency | activity change, negative = inhibition |
| --- | --- | --- |
| c1ccc(CNc2nc(-c3ccoc3)nc3ccccc23)cc1 | inconclusive: 39.8 µM [inhibitor, single point] | – |
| COC(=O)[C@@H]1C[C@H]1[C@@H](NC(=O)c1cnccn1)c1ccccc1 | inactive | – |
| C=CCOC(=O)C(C(C)=O)C(NC(=O)OC)c1ccco1 (stereo not given) | – | inactive: 4.25% [at 11.4 µM] |
| COc1cc(OC)cc(-c2cc3nc4c(c(N5CCN(c6ncccn6)CC5)n3n2)CCCC4)c1 | inconclusive: 31.6 µM [inhibitor, single point] | – |
| COc1ccc(NC(=O)NCc2cccn2C)c(OC)c1 | inactive | – |
| CC(=O)Nc1cccc(Oc2cc(C#N)c(C#N)cc2N2CCCCCC2)c1 | inconclusive: 39.8 µM [inhibitor, single point] | – |
| COC(=O)c1ccc(C(NC(=O)OCc2ccccc2)/C(F)=C/[C@@H](C)C(=O)NCc2cc(F)cc(F)c2)cc1 (stereo not given in full) | inactive | – |
| Cn1cc(S(=O)(=O)CC(=O)Nc2ccc3c(c2)OCCO3)c2ccccc21 | inconclusive: 31.6 µM [inhibitor, single point] | – |
| N#Cc1c(SCc2ccccc2)nc(N2CCOCC2)c2c1CCCC2 | inconclusive: 3.98 µM [inhibitor, single point] | – |
| COc1ccccc1-c1cc(C(F)(F)F)nc(N2CCOCC2)n1 | inconclusive: 39.8 µM [inhibitor, single point] | – |
| N[C@@H](C(=O)O)c1ccc(C(=O)O)c(C(=O)O)c1 | inconclusive: 39.8 µM [inhibitor, single point] | – |
| COc1ccc(CC/C(=N\O)C2(O)CCCCC2)cc1 | – | inactive: -1.89% [at 11.4 µM] |
| Nc1nc(=S)c2ncn([C@H]3O[C@@H](CO)[C@@H](O)[C@@H]3O)c2[nH]1 | inactive | – |
| Cc1nc(N)sc1-c1csc(N(C)c2ccc(O)cc2)n1 | inconclusive: 15.8 µM [inhibitor, partial curve] | – |
| COCCn1c(=O)[nH]c2cc(C(=O)OC)ccc2c1=O | active: 3.16 µM | – |
| CCCc1cc(C(N)=O)c(NC(C)=O)s1 | inconclusive: 31.6 µM [inhibitor, single point] | – |
| COc1ccc(C(O)CNc2ccc(C)cc2)cc1 (stereo not given) | inactive | – |
| C[C@@H]1C[C@@H]2[C@H]3CCC4=CC(=O)C=C[C@]4(C)[C@]3(Cl)[C@@H](O)C[C@@]2(C)[C@@]1(O)C(=O)CO | inactive | – |
| CCN(CCNC(=O)c1cc(C)nn1-c1ccccc1)c1ccccc1 | inactive | – |
| CCOC(=O)COc1ccc2cc(C(=O)OCC)c(=O)oc2c1 | active: 3.98 µM | – |
| Cc1c2c(n3c(nc4ccccc43)c1C#N)N(Cc1ccccn1)CC2 | inactive | – |
| CCOC(=O)CCc1c(C)nc2cc(-c3ccc(F)cc3)[nH]n2c1=O | inconclusive: 15.8 µM [inhibitor, partial curve] | – |
| CCC(c1nnnn1Cc1ccc(F)cc1)N(CCCO)Cc1cc2cc3c(cc2[nH]c1=O)OCO3 (stereo not given) | inactive | – |
| COc1ccc(CCNc2nc(-c3sc(N)nc3C)cs2)cc1OC | inconclusive: 3.16 µM [inhibitor, full curve] | – |
| Nc1ccc2nc(-c3ccc(Cl)cc3)[nH]c2c1 | active: 20 µM | – |

| Compound | Potency | activity change, negative = inhibition |
| --- | --- | --- |
| Cc1ccc(C2C(C(=O)c3sc(C)nc3C)=C(O)C(=O)N2CCCN(C)C)o1 (stereo not given) | inconclusive: 0.794 µM [inhibitor, single point] | – |
| CCOc1ccc2[nH]c(=O)c(C(c3nnnn3CCOC)N3CCOCC3)cc2c1 (stereo not given) | active: 25.1 µM | – |
| CN(C)S(=O)(=O)Nc1ccccc1C(N)=O | inconclusive: 31.6 µM [inhibitor, single point] | – |
| CN(C)c1nc(-c2cccnc2)nc2ccccc12 | inactive | – |
| O=S1(=O)C=C(Sc2nc3cc(Cl)ccc3o2)c2ccccc21 | inconclusive: 1.26 µM [inhibitor, full curve] | – |
| CC(=O)Nc1c(OC(C)=O)ccc2c(C)cc(=O)oc12 | active: 3.98 µM | – |
| CCOc1ccccc1NC(=O)CSc1nnc2c(CC)c(C)nc(N)n12 | inactive | – |
| CCSC1=N/C(=C\c2ccc(C(=O)O)cc2)C(=O)S1 | inconclusive: 15.8 µM [inhibitor, partial curve] | – |
| CCCCCCn1c(CN2CCN(C(=O)c3ccco3)CC2)nc2c1c(=O)n(C)c(=O)n2C | inconclusive: 31.6 µM [inhibitor, single point] | – |
| Cc1nnc(SCC(=O)NCCc2ccccc2)[nH]c1=O | inconclusive: 39.8 µM [inhibitor, single point] | – |
| O=C(NCCN1CCN(c2ccccc2)CC1)c1cccn2c(=O)c3ccccc3nc12 | inconclusive: 31.6 µM [inhibitor, single point] | – |
| Cc1cccc(CSc2nnc(-c3ccccn3)n2N)c1 | inactive | – |
| COc1cccc(-c2nnc(SCC(=O)Nc3cc(C)ccc3OC)n2N)c1 | inactive | – |
| Nc1cc(-c2nn[nH]n2)ccc1F | inconclusive: 12.6 µM [inhibitor, partial curve] | – |
| O=C(NCc1ccco1)c1cc2n(n1)C(C(F)(F)F)CC(c1ccc(Br)cc1)N2 (stereo not given) | inactive | – |
| COc1ccc(C(=O)CN2C(=O)NC3(CCCc4ccccc43)C2=O)cc1OC (stereo not given) | inactive | – |
| CCOC(=O)c1[nH]c2c(c1C)C(=O)CC(c1ccco1)C2 (stereo not given) | inconclusive: 39.8 µM [inhibitor, single point] | – |
| COC(=O)c1[nH]c2ccc(C)cc2c1NC(=O)CN1CCN(c2ccc(F)cc2)CC1 | inactive | – |
| CC(=O)c1sc(NC(=O)c2ccccc2F)nc1C | inconclusive: 39.8 µM [inhibitor, single point] | – |
| Cc1c(Cl)c(S(N)(=O)=O)cc2c1=NC=NS=2(=O)O | – | inactive: -3.19% [at 11.4 µM] |
| CN(C)c1oc(-c2ccc(OCc3ccc(Cl)cc3)cc2)nc1C#N | active: 31.6 µM | – |
| O=C(NCCN1CCOCC1)c1nn2c(c1Cl)NC(c1ccccc1)CC2C(F)(F)F (stereo not given) | inactive | – |
| COCC(=O)Nc1ccc(-c2cn3cccnc3n2)cc1 | active: 3.98 µM | – |
| Cc1cccc(Nc2n[nH]c(=S)s2)c1C | inconclusive: 2.51 µM [inhibitor, full curve] | – |
| COc1ncc2nc(-c3ccccc3)c(=O)n(C)c2n1 | inconclusive: 31.6 µM [inhibitor, single point] | – |
